# Laboratory results from the RNAGym collection of RNA variant scans (doi:10.7554/elife.90254).
# Read counts are not given, so values of variants with three or more changes are uncertain.
# B1: LINE1-mini (parent)
# chain: GGCAGAGCUCAACACAGCGUGGCAAAGUGGCUGUGGCUAGACUGCC
# Variants of: B1
# Assay: self-cleavage, relative activity (ratio to wild type); higher = more cleavage; in vitro, sequencing; the parent is a self-cleaving ribozyme
row,Variant,self-cleavage
1,A11U C13A U34A,0.01
2,A11G G30A A39U,0.01
3,A11U G17U C37U G44C,0
4,A11G G19C G21C G22C G33C,0.01
5,A11U C13A A14U U32A C42G,0.03
6,A11G C15A C37G,0.01
7,A11U C13U U20C G44C,0.04
8,A12G A14G C18U,0.02
9,A12C G21U G44U,0.04
10,A11G C23U C46U,0.04
11,A11G C13G A14U,0.03
12,A12C A16G C37U,0.02
13,A11U G19C C23U G36C C37G,0
14,A11U A12G G33C,0.02
15,A11U G19A G27A U28A U38A G40C C45G,0.01
16,A11U C15U G22A G29C,0.59
17,A11G C18G U34A U38G,0.01
18,A11U C45A C46U,0.03
19,A12C C23A G30U,0.02
20,A11U G27A G36U,0.02
21,A11G C15A A25C C46G,0.01

row,Variant,self-cleavage
1,A12C U34C G35C C37A,0
2,A12C A16C A39U,0.03
3,A11U U32C C46A,0.03
4,A11U G29A U38C,0.03
5,A11G C37A A39G G40A C42A,0.02
6,A11U A16C C18G,0.02
7,A12G C13A G35U C37G,0
8,A12C A26G C45U C46A,0.01
9,A11G G22A G29C,0.01
10,A11G A39G G44U,0.02
11,A11G A41G U43C,0.01
12,A12C A16U C45G,0.03
13,A12G A26G A39C,0.16
14,A12C A14G C18G,0.01
15,A11G A16C A39C,0.01
16,A12G A14G A25G A39U,0.01
17,A11G G33C A41U,0
18,A11U A24C C31G U34C A41U,0.02
19,A11U G21U C31A,0.02
20,A11U G17U G40C,0.01
21,A12C G21A U38A,0

row,Variant,self-cleavage
1,A11U U28C G30U,0.15
2,A11G A25U U38G G40U,0.01
3,A11G C18U C46A,0.09
4,A11G A14C A26U,0.04
5,A11U C13G A39U C42A,0.03
6,A11G G35C C37U G40U,0
7,A11G U20C C31U,0.02
8,A12C G21U A25C A26C,0.01
9,A11G A16G G33A,0.01
10,A11G A16G A25C U28G U32A,0
11,A12G C13A G40C,0.01
12,A12C G22A A26G,0.02
13,A12G C13G G21U C23U A26C U43G,0.03
14,A11U G35C A41C,0.01
15,A12C C18A G19C G29C U34C C46G,0.03
16,A11G A12U G17C G22C A25C G33C,0
17,A11U G21A U28C G30U U38G C42U,0.01
18,A11G A24G U28C U32C,0.05
19,A11G A24C G27A,0.01
20,A11U A16U C45A,0.04
21,A11U U28A C45U,0.1

row,Variant,self-cleavage
1,A11G G36C C37U C46G,0.02
2,A11U G19C G22U A24G G40U,0
3,A12C G22A C37A,0.02
4,A11U A14G G19A,0.01
5,A12G A16C C18G,0
6,A11U A12G G35U,0
7,A11G G30C U43C,0
8,A12C G29A C31U G35U A39C,0.02
9,A11G G35U C45G,0.05
10,A11U G17A C23A G35C,0
11,A12C C13A U32G G35C,0
12,A12C A16U G17U C31A G36C,0.01
13,A11C U34C U43C,0.03
14,A11U C37U A39U C45U,0.01
15,A11U G19A A25U A39U,0.03
16,A12G A14G G17C C18A G29A,0.01
17,A11U A12U G27U,0.05
18,A11U A12U G27C,0.08
19,A12G C13G G30A,0
20,A12G A14C A24G,0.03
